According to PubChem BioAssay AID602332 (National Center for Advancing Translational Sciences (NCATS), 2012):
Where “and” joins values, the source holds several entries; their conditions need not be identical. Equal entries are not always repeated. Screen size: about 420,000 compounds; about 75 (0.02%) were called active. Calls come from the whole dose curve; as a rule, active = well fitted activation curve with a large enough effect; inconclusive = small, poorly fitted or top-dose-only effect; inactive = no such curve, though single readings can be large or run the other way. Only a part is listed here, and it is no random draw.

test: qHTS for Inducers of the Endoplasmic Reticulum Stress Response (ERSR) in Human Glioma: qHTS; settings: U87-MG GRP78 promoter luciferase reporter, 16 h; activation: hits give high values; note: % of control where 0% means no effect; nearly all actives have a fitted effect of over 35% in size
Procedure, shortened: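 ERSR induction read as luciferase luminescence (Bright-Glo, 10 min at room temperature) in stably transfected human U87-MG glioma cells exposed to compounds for 16 h, using GRP78 as sensor.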

activation, inactive:
CC1=C(/C=C/C(C)=C/C=C/C(C)=C/C(=O)Nc2ccc(O)cc2)C(C)(C)CCC1 -10.7% [middle of 5 runs], CCCCCCCCCCCCCCC[C@@H](O)[C@@H](N)CO -0.315% and -3.87% and -2.63%, Cc1nc(N=Nc2ccc(C(=O)O)cc2)c(COP(=O)(O)O)c(C=O)c1O -10.4%, C#C[C@@]1(O)CC[C@@H]2[C@@H]3CCC4=CC(=O)CC[C@@H]4[C@H]3CC[C@]21CC -5.03%, O=C1c2c(O)cc(O)cc2OC(c2ccc(O)c(O)c2)C1O (configuration not stated) -1.59%, COc1cccc(-n2nnnc2S(C)(=O)=O)c1 -15.8%, CC(=O)CCS(=O)(=O)c1ccc(C)c(C)c1 -18.2%, O=[N+]([O-])c1cnc(Sc2ccncn2)s1 -16.1%, CCOc1cc(/C=C2/COc3ccccc3C2=O)ccc1OCC(=O)N(C)C -2.83%, COc1ccc([C@@H]2CNC(=O)C2)cc1OC1CCCC1 -0.897% and -3.2% and -2.06%, CCN(CC)CCCC(C)Nc1c2ccc(Cl)cc2nc2ccc(OC)cc12 (configuration not stated) -8.85%, Cn1c(-c2ccc(F)cc2)cnc1SCC(=O)N1CCCCC1 -13.6%, C#C[C@]1(O)CCC2C3CCC4=Cc5oncc5CC4(C)C3CCC21C (some centres not stated) -1.7%, Cc1ccc(S(=O)(=O)/C=C\C#N)cc1 -10.2%, O=C(/C=C/Nc1ccc(F)cc1Br)c1ccccc1 -13.8%, Cc1cc(=O)c2c(O)c3c(O)cc(O)c4c5c(O)cc(O)c6c(O)c7c(=O)cc(C)c8c1c2c(c34)c(c65)c78 -5.87%, Cc1ccc(C(=O)/C=C2\NCC(C)NC2=O)cc1 (configuration not stated) -16.4%, Cc1cc(NC(=O)c2ccc3c(c2)OCCO3)no1 -17.8%, C=CCc1ccc(O)c(-c2ccc(O)c(CC=C)c2)c1 -3.68% and -12.4% and -7.48%, C=CCn1c(C)cc(C(=O)CSc2ccc(NC(C)=O)cc2)c1C -15.5%, CCOC(=O)Cn1c(=O)oc2cc(S(=O)(=O)NC(C)c3ccccc3)ccc21 (configuration not stated) 9.07%, O=c1cc(-c2ccc(O)cc2)oc2cc(O)cc(O)c12 -3.02% [middle of 7 runs], Cc1noc(C)c1S(=O)(=O)N(C)C[C@H]1OCc2cnnn2CCCC(=O)N([C@H](C)CO)C[C@H]1C -2.25%, c1ccc2c(c1)oc1c(Nc3ccc(CN4CCOCC4)cc3)ncnc12 -15.1%, O=C(COc1ccc2c(c1)OCO2)Nc1nccs1 -14.6%, C=CC[C@H](CC(=O)OC(C)(C)C)C(=O)OC[C@@H]1CCCN1C(=O)[C@H](CC=C)CC(=O)N[C@H](CO)Cc1ccccc1 -3.51%, Cc1ccccc1C(=O)N/N=C/c1ccc([N+](=O)[O-])s1 -12.4%, COc1ccc(C(=O)O/N=C(\N)c2ccccn2)cc1 -18.8%, COc1cc(SC)ccc1C(=O)Nc1nccs1 -14.4%, O=C(Nc1ccccc1Cl)/C(Cl)=C(\Cl)S(=O)c1ccccc1 (configuration not stated) -18.9%, O=C(CCCOc1ccccc1)N1CCN(c2ccccn2)CC1 -14%, CC(C)(C)OC(=O)C[C@H]1C/C=C\C[C@@H](CC(=O)N[C@H](CO)Cc2ccccc2)C(=O)NC[C@@H](c2ccccc2)OC1=O -0.399%, OCCN1CCN(CCCN2c3ccccc3Sc3ccc(Cl)cc32)CC1 -3.48% [middle of 4 runs], Cn1cc([N+](=O)[O-])c(C(=O)Nc2nc(-c3ccc(Cl)cc3)cs2)n1 -15.6%, COc1ccccc1-c1cc(C(F)(F)F)nc(S(=O)(=O)CCCC(=O)N2CCCCC2C)n1 (configuration not stated) -18.5%, COc1nc(C)nc(Cl)c1NC1=NCCN1 -4.9% and -2.41% and -2.86%, CCCCCCCCN1[C@@H](CC(=O)O)c2ccc(C(F)(F)F)cc2S1(=O)=O 0.206%, C/C1=C2N=C(/C=C3N=C(/C(C)=C4\[N-]C(C)(C5N=C1C(C)(CCC(=O)NCC(C)OP(=O)([O-])O[C@H]1C(O)C(n6cnc7cc(C)c(C)cc76)O[C@@H]1CO)C5CC(N)=O)C(C)(CC(N)=O)C4CCC(N)=O)C(C)(CC(N)=O)C\3CCC(N)=O)C(C)(C)C/2CCC(N)=O.[CH2-]C1OC(n2cnc3c(N)ncnc32)C(O)C1O.[Co] (some centres not stated) -12.4%, CC(C)(C)n1ncc2c(=O)n(CC(=O)NCc3ccc(F)cc3)cnc21 -14.1%, CCOC(=O)c1cccc(NC(=O)/C=C/c2ccc3c(c2)OCO3)c1 -14.1%, CS(=O)(=O)c1ccc(S(=O)CC(=O)OCc2ccccc2)c([N+](=O)[O-])c1 (configuration not stated) -16.2%, O=Nc1c(-c2c(O)[nH]c3ccccc23)[nH]c2ccccc12 -2.66% and -5.48%, CCc1nnc(NC(=O)c2nc(S(=O)(=O)Cc3ccc(C)cc3)ncc2Cl)s1 -10.2% and -18.7%, C#C[C@@]1(O)CCC2C3CCC4=CC(=O)CCC4C3CC[C@@]21CC (some centres not stated) -1.71%, COc1cc(N[C@@H](C)CCCN)c2ncccc2c1 -11.6%, COc1ccc(CCN2CCC(Nc3nc4ccccc4n3Cc3ccc(F)cc3)CC2)cc1 -8.89% [middle of 5 runs], CC[C@@H](C)[C@H]1O[C@]2(CC[C@H]1C)C[C@@H]1C[C@@H](CC=C(C)[C@@H](O[C@H]3C[C@H](OC)[C@@H](O[C@H]4C[C@H](OC)[C@@H](O)[C@H](C)O4)[C@H](C)O3)[C@@H](C)C=CC=C3CO[C@@H]4[C@H](O)C(C)=C[C@@H](C(=O)O1)[C@]34O)O2 -11.7%, O=C(CNCCC1=CCCCC1)Nc1ccc(N2CCCCCC2)cc1 -15.3%, Cc1nc2ccc(-c3nc4cc(N)ccc4o3)cc2[nH]1 -14%, CC(=O)OC[C@H]1O[C@@H](Sc2cccc3cccnc23)[C@H](OC(C)=O)[C@@H](OC(C)=O)[C@@H]1OC(C)=O -4.83%, N#CC1=C(N)C(C#N)(C#N)[C@H](c2cccnc2)[C@H]2CN(C(=O)OCc3ccccc3)CC=C12 -0.664%, COc1cc(/C=C(\C#N)C(=O)Nc2nnc(C(F)(F)F)s2)ccc1OCc1ccc(C(F)(F)F)cc1C(F)(F)F -2.28%, O=C(OCC(F)(F)F)c1cccc(COc2ccc3ccccc3c2)c1 -15%, O=C(NCCc1ccccc1)c1ccc2c(c1)OCCCO2 -18.6%, CCOc1ccc(NC(=O)c2cnsn2)cc1 -13.3%, CC(C)(C)OC(=O)C[C@H]1C/C=C\C[C@@H](CC(=O)N[C@@H](CO)Cc2ccccc2)C(=O)NC[C@@H](c2ccccc2)OC1=O -1.71%, CC(C)C[C@H](N)c1nnc(S(=O)(=O)Cc2ccc(F)cc2)o1 -15.1%, CCCOC(=O)c1ccc(Oc2c(-c3ccc(OC)cc3O)n[nH]c2C)cc1 -18.6%, CCN(Cc1ccccc1)C(=O)COC(=O)c1n[nH]c2ccccc12 -18.5%, CCOc1ccc(C(=O)CCN2CCCCCC2)cc1 -17%, COc1ccc(C(=O)Nc2ccc3ccccc3n2)c(OC)c1OC -12.4%, CN(C)c1ccc(/C=C2/C(=O)Nc3ccccc32)cc1 -7%, Cc1ccc(-n2[nH]c(C)c(C=Nc3ccc4[nH]c(=O)[nH]c4c3)c2=O)cc1C -14.2%, CCOC(=O)c1c(C)[nH]c(C(=O)CSc2ccccc2)c1C -14.2%, CC(C(=O)O)c1ccc(N2Cc3ccccc3C2=O)cc1 (configuration not stated) -11% and -12.1%, Cc1cccc(C#Cc2ccccc2)n1 -0.726% [middle of 4 runs], CC1=C(C)CS(=O)N(S(=O)(=O)c2ccc(Cl)cc2)C1 (configuration not stated) -17.1%, N#CC1=C(N)Oc2n[nH]c(-c3cccs3)c2C1c1cccnc1 (configuration not stated) -14.6%, C=CC[C@@H](CC(=O)OC(C)(C)C)C(=O)OC[C@@H]1CCCN1C(=O)[C@H](CC=C)CC(=O)NCCO 2.79%, Cc1noc(C)c1S(=O)(=O)N(C)C[C@H]1OCc2cnnn2CCCC(=O)N([C@H](C)CO)C[C@@H]1C 2.25%, COc1c(-c2ccc(O)c(O)c2)oc2cc(O)cc(O)c2c1=O -3.24%, O=c1cc(-c2ccc(O)c(O)c2)oc2cc(O[C@@H]3O[C@H](CO)[C@@H](O)[C@H](O)[C@H]3O)cc(O)c12 -7.07% and 2.74%, CCSC1(SCC)N=C(N)C2(C#N)C(c3ccc(F)cc3)C12C#N (configuration not stated) -18.5%, CC(C)(C)OC(=O)C[C@H]1C/C=C\C[C@@H](CC(=O)N[C@H](CO)Cc2ccccc2)C(=O)NC[C@H](c2ccccc2)OC1=O -4.47%, O=C(OCn1ncc(Br)c(Br)c1=O)c1ccccc1Cl -17.1%, O=C(CS(=O)c1ccc(C(F)(F)F)cc1[N+](=O)[O-])Oc1ccccc1 (configuration not stated) -17.3%, O=C(/C=C\c1ccc(O)c(O)c1)O[C@@H]1C[C@](O)(C(=O)O)C[C@@H](O)[C@@H]1O -3.13%
